The list shows a part of the results.
What follows are sequences tested against no compound (DMSO) (assay: log2 fold change of degron read counts, EGFP-low vs EGFP+ sorted cells; higher = lower degron-EGFP level without compound (poor expression or instability)). Conditions: compound: DMSO control; 18 h.
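Also: jurkat cells carrying a lentiviral library of mutant zinc finger degrons fused to EGFP plus mCherry, mCherry+ cells FACS sorted, degron abundance counted by next-generation sequencing.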

Row | Sequence | log2 fold change of degron read counts
1 | FFCPICGRTFTQKGNLLRHIKL | 0.272
2 | FWCEQCGAWFTQKGNLLRHIKL | 1.05
3 | FGCNQCGRVFTQKGNLLRHIKL | -0.0989
4 | FGCPVCGAHFTQKGNLLRHIKL | 0.387
5 | FLCEVCGADFTQKGNLLRHIKL | -2.54
6 | FRCPICGHDFTQKGNLLRHIKL | -0.727
7 | LLCPICGFFCTQKGNLLRHIKL | 2.11
8 | FQCPICGHEFTQKGNLLRHIKL | -0.59
9 | FFCPICGRWFTQKGNLLRHIKL | 1.29
10 | FNCEQCGAEFTQKGNLLRHIKL | -2.96
11 | FACEQCGACFTQKGNLLRHIKL | -1.73
12 | FDCDICGAVFTQKGNLLRHIKL | -0.981
13 | FFCPQCGAFFTQKGNLLRHIKL | 1.44
14 | FRCDVCGAHFTQKGNLLRHIKL | -1.71
15 | FYCNQCGARFTQKGNLLRHIKL | -0.053
16 | FICEQCGANFTQKGNLLRHIKL | -2.35
17 | FACNQCGRYFTQKGNLLRHIKL | 0.918
18 | FRCPVCGAVFTQKGNLLRHIKL | 0.511
19 | FYCEICGHVFTQKGNLLRHIKL | 0.0103
20 | LKCEICGFFCTQKGNLLRHIKL | 0.669
21 | FICEICGALFTQKGNLLRHIKL | -1.06
22 | LKCNQCGFACTQKGNLLRHIKL | 0.359
23 | FGCNICGAEFTQKGNLLRHIKL | -0.876
24 | FVCEQCGACFTQKGNLLRHIKL | -2.6
25 | FNCNQCGHGFTQKGNLLRHIKL | 0.594

Row | Sequence | log2 fold change of degron read counts
26 | FYCPICGHDFTQKGNLLRHIKL | -0.177
27 | FHCDICGAYFTQKGNLLRHIKL | -0.533
28 | FHCNQCGALFTQKGNLLRHIKL | 0.0212
29 | FDCDICGAYFTQKGNLLRHIKL | 0.671
30 | FLCNQCGHVFTQKGNLLRHIKL | -0.216
31 | FVCEICGHWFTQKGNLLRHIKL | -2.68
32 | FICEICGARFTQKGNLLRHIKL | -1.68
33 | FKCPVCGAWFTQKGNLLRHIKL | 0.348
34 | FHCNQCGAKFTQKGNLLRHIKL | -0.443
35 | FCCEICGHRFTQKGNLLRHIKL | -1.93
36 | FTCNICGADFTQKGNLLRHIKL | -1.19
37 | FWCPICGHVFTQKGNLLRHIKL | 0.979
38 | FDCDVCGALFTQKGNLLRHIKL | 0.0243
39 | FNCEICGAAFTQKGNLLRHIKL | -2
40 | FTCEVCGAPFTQKGNLLRHIKL | -1.81
41 | FSCEICGRVFTQKGNLLRHIKL | -1.26
42 | FVCPICGHIFTQKGNLLRHIKL | 0.269
43 | FYCEICGHMFTQKGNLLRHIKL | -0.0769
44 | FWCPICGRAFTQKGNLLRHIKL | -0.269
45 | FVCPVCGARFTQKGNLLRHIKL | -0.191
46 | FQCNVCGAVFTQKGNLLRHIKL | -1.29
47 | FECEICGACFTQKGNLLRHIKL | -1.87
48 | LGCEICGFKCTQKGNLLRHIKL | 0.594
49 | FVCNQCGAPFTQKGNLLRHIKL | -0.299
50 | FNCPVCGACFTQKGNLLRHIKL | -0.0384
